These are yes or no findings as the source states them, for the method shown. Some binding calls cover weakened binding; strength is not graded here.
T1: ZED1^wt (Arabidopsis thaliana) (UniProt Q8LGB6)
T1 sequence: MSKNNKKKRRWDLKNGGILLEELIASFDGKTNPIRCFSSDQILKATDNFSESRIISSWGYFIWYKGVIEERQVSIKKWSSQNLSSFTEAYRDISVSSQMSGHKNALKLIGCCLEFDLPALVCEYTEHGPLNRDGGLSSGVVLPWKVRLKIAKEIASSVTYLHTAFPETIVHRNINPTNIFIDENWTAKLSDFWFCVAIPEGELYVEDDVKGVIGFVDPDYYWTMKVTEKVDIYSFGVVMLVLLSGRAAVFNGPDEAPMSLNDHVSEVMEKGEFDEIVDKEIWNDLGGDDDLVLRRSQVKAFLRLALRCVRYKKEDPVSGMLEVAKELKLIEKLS


The binders below were run against T1, ZED1^wt (Arabidopsis thaliana) (assay: two-hybrid; Y3H: LexA-ZED1 (wt or mutant) bait, PBL (wt or mutant) preys, HopZ1a^wt expressed from the yeast ho locus).

Binder | binding
PBL36 (protein, UniProt F4J0D2 1-476) MATKLESFKVVEKLGVEKGEKGKMMSKKKNVKKDGDESESGFWFRFKFIFSCISSRSKVDSSMNATAVIAEPKKVIEKLEGHPAPTKDTGCAESGSSTPLMSGELKYSSKLRIFMFNDLKLATRNFRPESLLGEGGFGCVFKGWIEENGTAPVKPGTGLTVAVKTLNPDGLQGHKEWLAEINFLGNLVHPSLVKLVGYCMEEDQRLLVYEFMPRGSLENHLFRRTLPLPWSVRMKIALGAAKGLAFLHEEAEKPVIYRDFKTSNILLDGEYNAKLSDFGLAKDAPDEKKSHVSTRVMGTYGYAAPEYVMTGHLTTKSDVYSFGVVLLEILTGRRSVDKSRPNGEQNLVEWVRPHLLDKKRFYRLLDPRLEGHYSIKGAQKATQVAAQCLNRDSKARPKMSEVVEALKPLPNLKDFASSSSSFQTMQPVAKNGVRTQGGGFVSRNGPPMRSLSSLNLPQASPYRYARQSPKPKGKEP | binds weakly
PBL13 (protein, UniProt F4JZW1 1-494) MVLCFQDPDNIYSPKKTKKDDGERVITKQKSFLGLSILDISNPSSTTLSEDLSISLAGSDLHVFTQAELRVITQSFSSSNFLGEGGFGPVHKGFIDDKLRPGLKAQPVAVKLLDLDGLQGHREFMTEVMCLGKLKHPNLVKLIGYCCEEAHRLLVYEFMPRGSLESQLFRRCSLPLPWTTRLNIAYEAAKGLQFLHEAEKPIIYRDFKASNILLDSDYTAKLSDFGLAKDGPQGDDTHVSTRVMGTQGYAAPEYIMTGHLTAKSDVYSFGVVLLELLTGRKSVDIARSSRKETLVEWARPMLNDARKLGRIMDPRLEDQYSETGARKAATLAYQCLRYRPKTRPDISTVVSVLQDIKDYKDDIPIGIFTYTVPTKPRREVKETSLQNFDKPRRETKVTSLQNFDKTRREVKDTSLQNFDKTRREVKETSLQNFDKTRREVKETSLQNFDKPRNVSTTDNHQKFRSPAHTARNHRITLRNGYNSPMRNEAGGERY | binds
PBL12 (protein, UniProt O64842 1-424) MAVFKKKKTSLTSLFLGCYKAKNASKYEGGEKAVMKIRTCPAFKRLSLSDISDPSSPMSVMDDLSHSFTSQKLRLFTLSELRVITHNFSRSNMLGEGGFGPVYKGFIDDKVKPGIEAQPVAVKALDLHGHQGHREWLAEILFLGQLSNKHLVKLIGFCCEEEQRVLVYEYMPRGSLENQLFRRNSLAMAWGIRMKIALGAAKGLAFLHEAEKPVIYRDFKTSNILLDSDYNAKLSDFGLAKDGPEGEHTHVTTRVMGTQGYAAPEYIMTGHLTTMNDVYSFGVVLLELITGKRSMDNTRTRREQSLVEWARPMLRDQRKLERIIDPRLANQHKTEAAQVAASLAYKCLSQHPKYRPTMCEVVKVLESIQEVDIRKHDGNNNKEGKKFVDINKFRHHRKGKRRVNIAYSDSLVYKESKAKQNDGI | binds weakly

The next lines start with the values.

binding | Binder
binds | PBL22 (protein, UniProt Q9SFX0 1-381) MRCFSCLNTQTNDMRINIDTLSDLTDYASVATKIDPRGTGSKSGILVNGKVNSPKPGGGARSFTFKELAAATKNFREGNIIGKGGFGSVYKGRLDSGQVVAIKQLNPDGHQGNQEFIVEVCMLSVFHHPNLVTLIGYCTSGAQRLLVYEYMPMGSLEDHLFDLEPDQTPLSWYTRMKIAVGAARGIEYLHCKISPSVIYRDLKSANILLDKEFSVKLSDFGLAKVGPVGNRTHVSTRVMGTYGYCAPEYAMSGRLTIKSDIYSFGVVLLELISGRKAIDLSKPNGEQYLVAWARPYLKDPKKFGLLVDPLLRGKFSKRCLNYAISITEMCLNDEANHRPKIGDVVVAFEYIASQSKSYEDRRTARKSTDSNRLRRETKQSY
binds | PBL9 (protein, UniProt Q06548 1-410) MGICLSAQVKAESSGASTKYDAKDIGSLGSKASSVSVRPSPRTEGEILQSPNLKSFSFAELKSATRNFRPDSVLGEGGFGCVFKGWIDEKSLTASRPGTGLVIAVKKLNQDGWQGHQEWLAEVNYLGQFSHRHLVKLIGYCLEDEHRLLVYEFMPRGSLENHLFRRGLYFQPLSWKLRLKVALGAAKGLAFLHSSETRVIYRDFKTSNILLDSEYNAKLSDFGLAKDGPIGDKSHVSTRVMGTHGYAAPEYLATGHLTTKSDVYSFGVVLLELLSGRRAVDKNRPSGERNLVEWAKPYLVNKRKIFRVIDNRLQDQYSMEEACKVATLSLRCLTTEIKLRPNMSEVVSHLEHIQSLNAAIGGNMDKTDRRMRRRSDSVVSKKVNAGFARQTAVGSTVVAYPRPSASPLYV

Reference: article PMC6634424
